# Laboratory results as given in publication PMC6919601, “Identification of Plasmodium dipeptidyl aminopeptidase allosteric inhibitors by high throughput screening” (PLoS ONE, 2019).
# Screen size: about 110,000 compounds; about 230 (0.21%) showed an effect of 50% or more. Some of the results follow.
# Target: DPAP1 (Plasmodium falciparum, UniProt Q8IIJ9)
# Assay: primary screen, percent inhibition; read by cleavage of a fluorogenic dipeptide substrate; higher = more effect of the substance
# Set-up: species or system P. falciparum D10 trophozoite lysates; single well
# 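Further: 30 min substrate incubation versus DMSO and 10 µM JCP410 controls.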
# DPAP1, sequence (Q8IIJ9 whole entry, looked up): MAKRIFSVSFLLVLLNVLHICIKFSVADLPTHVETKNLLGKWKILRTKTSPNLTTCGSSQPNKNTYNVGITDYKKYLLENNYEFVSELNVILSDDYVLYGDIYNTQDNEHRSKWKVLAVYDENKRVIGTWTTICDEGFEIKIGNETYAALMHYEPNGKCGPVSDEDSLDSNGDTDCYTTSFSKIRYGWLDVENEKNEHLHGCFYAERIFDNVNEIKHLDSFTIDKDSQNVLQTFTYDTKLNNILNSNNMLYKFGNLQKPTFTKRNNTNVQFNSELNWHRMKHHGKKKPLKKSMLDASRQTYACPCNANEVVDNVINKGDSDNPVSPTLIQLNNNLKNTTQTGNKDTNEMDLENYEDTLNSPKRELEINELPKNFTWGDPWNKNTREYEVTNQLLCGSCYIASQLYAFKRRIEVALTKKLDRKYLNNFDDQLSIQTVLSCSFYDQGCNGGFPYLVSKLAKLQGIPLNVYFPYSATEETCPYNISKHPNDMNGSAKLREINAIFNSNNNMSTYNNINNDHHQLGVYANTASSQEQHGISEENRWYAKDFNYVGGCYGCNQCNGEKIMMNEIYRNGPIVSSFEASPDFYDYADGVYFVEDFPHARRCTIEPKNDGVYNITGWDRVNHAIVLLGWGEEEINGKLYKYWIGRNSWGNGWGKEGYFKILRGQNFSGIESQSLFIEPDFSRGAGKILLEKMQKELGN
row,Compound,% Inhibition @ 10 uM [%]
1,C=CCn1c(SCC(=O)N2CCc3ccccc3C2)nc2ccccc2c1=O,-0.519
2,CCN(CC)S(=O)(=O)c1ccc(Cl)c(C(=O)Nc2sc3c(c2C#N)CCCC3)c1,2.92
3,O=C(NCc1ccncc1)c1ccc(Br)o1,-1.54
4,CCOc1ccc2ccccc2c1/C=C1\NC(=O)N(Cc2ccc(Cl)cc2)C1=O,0.487
5,Cc1ccc(-c2c(O)c(=O)/c2=N\CCCN2CCCC(C)C2)cc1 (stereo not drawn),0.867
6,Cn1c(C(=O)O)c(S(=O)(=O)c2ccc(Cl)cc2)c2ccccc21,4.79
7,CCC[C@H](N[C@H](C(=O)NCc1ccccn1)c1ccc(-c2ccc(S(C)(=O)=O)cc2)cc1)C(=O)NC1(C#N)CC1,1.7
8,CCCCCC1(C)C(C#N)(C(=O)OC)C1(C#N)C(=O)OC (stereo not drawn),-4.06
9,CC1(C)CC(=O)C(c2c[nH]c3ccccc23)C(=O)C1,6.8
10,CN1C(=O)N(C)C2CC1N(C)C(=O)N2C,2.26
11,Cc1cccnc1NC(=O)Cn1nc(Cc2ccncc2)c2ccccc2c1=O,7.96
12,COc1ccc(-c2nc(-c3cc4cc(C)ccc4nc3OC)no2)cc1OC,2.62
13,CN(C)/C=C1\C(=O)N/C(=C/c2ccc(Br)cc2)C1=O,34.8
14,COc1ccc(CCNc2nc(Cl)nc(NC(C)(C)CO)n2)cc1OC,-2.14
15,CCOC(=O)c1cnc(NCc2ccccc2)nc1C,-3.75
16,COc1ccccc1C1=NOC(C(=O)N2CCCCCC2)C1 (stereo not drawn),1.62
17,Cc1ccc(/C=C2/NC(=O)NC2=O)cc1,-0.178
18,CC1C(c2ccccc2)=[N+]([O-])C(C)(C)N1O (stereo not drawn),-3.41
19,Cc1ccccc1OCC(=O)N(Cc1nc(-c2ccc(Cl)cc2)no1)C(C)C,3.6
20,O=C(O)CSc1nc2ccc(Br)cc2o1,2.35
21,COC(=O)c1ccc(-c2ccc(C(=O)OC)cc2)cc1,2.79
22,COc1ccc(OC)c(C(=O)c2c(N)c(-c3nc(-c4ccc5c(c4)OCO5)cs3)c3ccccn23)c1,2.62

row,Compound,% Inhibition @ 10 uM [%]
1,Cc1cc2nc3c(nc2cc1C)C1(C(=O)N(C)C)CCC3(C)C1(C)C (stereo not drawn),-1.55
2,Cc1cc2ncn(Cc3ccccc3C)c2cc1C,-0.551
3,O=[N+]([O-])c1ccc(S(=O)(=O)c2nc3ccccc3s2)c(Cl)c1,1.9
4,O=C(Nc1ccccc1F)c1cccc(Cl)c1,-5.2
5,COc1ccc(-c2onc(C)c2C)cc1S(=O)(=O)N1CCOCC1,4.85
6,CCOc1ccc(NS(=O)(=O)c2ccc(NC(=O)c3cccc(C)c3)cc2)cc1,5.09
7,CC(C)=CCC/C(C)=C/CN(C)CCc1ccccn1,0.0792
8,CC1CCc2c(sc3ncn(CC(N)=O)c(=O)c23)C1 (stereo not drawn),0.674
9,Cc1cccc(NC(=O)COc2ccccc2C)n1,-4.12
10,CC(=O)N1N=C(c2cc(Cl)ccc2Cl)CC1c1ccccc1 (stereo not drawn),5.07
11,CCc1cccc2c(C(=O)C(F)(F)F)cn(CC(=O)NCc3ccc4c(c3)OCO4)c12,-6.7
12,CCOCCCNC(=O)c1cc2c(O)nc3ccc(C)cc3c2s1,5.92
13,CCOc1ccccc1C(=O)NCc1ccc(F)cc1,-0.132
14,Cc1c(CCC#N)c2ccccc2n1C,0.00178
15,CC1CCCCN1C(=O)c1cc([N+](=O)[O-])cc([N+](=O)[O-])c1 (stereo not drawn),0.526
16,CCN1C(=O)N/C(=C/c2cn(Cc3ccccc3)c3ccccc23)C1=O,3.63
17,CN1CCCN(Cc2ccccc2F)CC1,-1.92
18,O=C1CCNc2cc3ccccc3cc21,1.7
19,CC(C)=C(NC(=O)c1ccccc1)C(=O)N1CCCCC1,1.84
20,C=C(C)[C@@H]1CC=C(CN2CCC(C(=O)OCC)CC2)CC1,-0.446
21,Cn1cccc1CNCCc1ccc(F)cc1,-5.4
22,COc1ccc(S(=O)(=O)N2CCC(CN)CC2)cc1OC,3.69

row,Compound,% Inhibition @ 10 uM [%]
1,CCOc1nc2c([nH]1)OC(N)=C(C#N)C2c1ccccc1C(C)(C)C (stereo not drawn),-0.988
2,CNCC(=O)Nc1c2c(nc3c1CCC3)CCCC2,-1.44
3,CC(C)CS(=O)(=O)C1=NN2C(=N)/C(=C\c3ccc(OCC(=O)O)cc3)C(=O)N=C2S1,0.208
4,COc1cccc(OC)c1-c1ccc(C(=O)N[C@@H](CC(C)C)C(=O)NCC#N)cn1,-3.48
5,CCCn1c(COc2ccc(C)cc2)nc2ccccc21,-3.63
6,CC(=O)Nc1ccc(NC(=O)C2CCN(C(=O)c3ccc(Cl)cc3Cl)CC2)cc1,0.231
7,O=C(CCCNS(=O)(=O)c1cccc2nsnc12)N1CCCCC1,-3.23
8,CC(C)(O)C#Cc1ccc(C(=O)NCc2ccccc2)cc1,-1.32
9,Brc1ccc(OCc2cn3ccccc3n2)cc1,0.00626
10,O=C(c1ccc(S(=O)(=O)N2CCCCC2)cc1)N1CCN(Cc2ccc3c(c2)OCO3)CC1,-9.4
11,CN(c1ncnc2onc(-c3ccc(Cl)cc3)c12)C1CCCCC1,-7.65
12,Cc1ccc(CN(Cc2ccco2)C(=O)COc2ccccc2Cl)o1,2.29
13,Cc1nn(-c2ccccc2)c2c1C(c1ccco1)C(C#N)=C(N)O2 (stereo not drawn),-4.33
14,CCN1C(=O)S/C(=C/c2ccc(-c3cccc(C(=O)O)c3C)o2)C1=O,2.84
15,Cc1ccccc1-n1nnc(-c2nsc(NC(=O)c3ccccc3)n2)c1C,-5.09
16,Cc1ccc(NC(=O)CCS(=O)(=O)c2ccc(Br)cc2)cc1,1.89
17,COC(=O)c1ccccc1NC(=O)c1ccc(-c2ccccc2)cc1,1.7
18,Clc1cccc(-c2nnc(CN3CCc4ccccc4C3)o2)c1,-4.47
19,NC(=O)C1CCN(Cc2ccccc2)CC1,-3.57
20,CSc1ccc(CCNC(=O)c2ccc(CN3CC(=O)N4CCCCC4C3=O)cc2)cc1 (stereo not drawn),12.4
21,CC1(C)C(C=C(Cl)Cl)C1C(=O)NCc1ccco1 (stereo not drawn),-1.96
22,Cc1ccc(/C=C(/NC(=O)c2ccccc2)C(=O)NCCc2c[nH]c3ccccc23)o1,-2.88
